The record followed here is a collection of fitness landscapes (doi:10.1126/science.1257360).

B1: PhoQ; a variant is named by its letters at X, in order, P23837 (parent)
chain: MKKLLRLFFPLSLRVRFLLATAAVVLVLSLAYGMVALIGYSVSFDKTTFRLLRGESNLFYTLAKWENNKLHVELPENIDKQSPTMTLIYDENGQLLWAQRDVPWLMKMIQPDWLKSNGFHEIEADVNDTSLLLSGDHSIQQQLQEVREDDDDAEMTHSVAVNVYPATSRMPKLTIVVVDTIPVELKSSYMVWSWFIYVLSANLLLVIPLLWVAAWWSLRPIEALAKEVRELEEHNRELLNPATTRELTSLVRNLNRLLKSERERYDKYRTTLTDLTHSLKTPLXXLQXXLRSLRSEKMSVSDAEPVMLEQISRISQQIGYYLHRASMRGGTLLSRELHPVAPLLDNLTSALNKVYQRKGVNISLDISPEISFVGEQNDFVEVMGNVLDNACKYCLEFVEISARQTDEHLYIVVEDDGPGIPLSKREVIFDRGQRVDTLRPGQGVGLAVAREITEQYEGKIVAGESMLGGARMEVIFGRQHSAPKDE

This is one part of the list.

The variants in this assay derive from B1. The assay is described as follows: enrichment ratio after two sorts for PhoP signalling (ratio (wild type AVST 3.29)); higher = more functional. The following applies: with PhoP (E. coli).
Consider HTRH, for which the enrichment ratio is at most 0.25.
As to LQTK, the enrichment ratio is at most 0.25.
For the variant VGTH, the enrichment ratio is at most 0.25.
In the case of FPQY, the enrichment ratio is at most 0.25.
The figure for SQQC is at most 0.25; for LNMC it is 7.24; for IGEI it is at most 0.25.
For the variant LQYW, the enrichment ratio is at most 0.25.
As for SISG, the enrichment ratio is 8.7.
Consider VREW, for which the enrichment ratio is at most 0.25.
Under NIGW stands at most 0.25; under PVFY, at most 0.25.
Under HEAA stands at most 0.25; under ALMK, at most 0.25; under DGDI, at most 0.25.
Regarding ILRR, the enrichment ratio is at most 0.25.
Under KIEL stands at most 0.25.
The figure for RTEP is at most 0.25.
As for TFDA, the enrichment ratio was at most 0.25.
For the variant MNQR, the enrichment ratio is at most 0.25.
Turning to GGGY, the enrichment ratio is at most 0.25.
The figure for WERY is at most 0.25; for MFQV it is at most 0.25; for EYQK it is at most 0.25.
Under IPND stands at most 0.25; under SVNM, 0.667; under DFPD, at most 0.25.
As to RCKS, the enrichment ratio is at most 0.25.
Under YLHW stands at most 0.25.
In the case of TSIC, the enrichment ratio turned out to be 1.47.
For the variant MPTW, the enrichment ratio was at most 0.25.
FYAW: the enrichment ratio was at most 0.25.
As to EDTH, the enrichment ratio was at most 0.25.
As to GSSP, the enrichment ratio is at most 0.25.
For the variant GTMI, the enrichment ratio was at most 0.25.
Under VQGE stands at most 0.25; under PSVK, at most 0.25.
Under TQLV stands 26.3; under KAWA, at most 0.25.
For the variant DAGA, the enrichment ratio is at most 0.25.
As for DLTL, the enrichment ratio is at most 0.25.
Under HENA stands at most 0.25; under SNNY, 8.91; under VQHS, at most 0.25.
QPLG: the enrichment ratio was at most 0.25.
Take HDYM: the enrichment ratio is at most 0.25.
The figure for CSVC is at most 0.25.
FPNA: the enrichment ratio is at most 0.25.
Under NPWG stands at most 0.25; under DLPC, at most 0.25; under RFIK, at most 0.25.
In the case of GCSE, the enrichment ratio is at most 0.25.
On to YHTP, for which the enrichment ratio was at most 0.25.
Under QFVW stands at most 0.25; under SKDM, at most 0.25; under VTDC, at most 0.25.
Under LAWN stands at most 0.25; under DNST, at most 0.25.
The figure for KHIA is at most 0.25.
Consider QSPP, for which the enrichment ratio was at most 0.25.
The figure for MYNN is at most 0.25; for YEFN it is at most 0.25; for TSDC it is 1.55.
Under ARRF stands at most 0.25; under FIFG, at most 0.25; under VRVD, at most 0.25.
Under KTYI stands at most 0.25; under HKIE, at most 0.25; under NHWA, at most 0.25.
In the case of GGDC, the enrichment ratio is at most 0.25.
Take ALTK: the enrichment ratio was found to be 2.99.
In the case of FPQF, the enrichment ratio was at most 0.25.
In the case of HTVY, the enrichment ratio was at most 0.25.
Under DCNW stands at most 0.25; under DIAH, at most 0.25; under TARF, at most 0.25.
Under PLKA stands at most 0.25.
Under LHWR stands at most 0.25.
As to NIQR, the enrichment ratio is at most 0.25.
As to EVWL, the enrichment ratio is at most 0.25.
Turning to RKYI, the enrichment ratio was at most 0.25.
Under FSEF stands at most 0.25; under VSIC, at most 0.25.
Under PDWE stands at most 0.25.
YEVI: the enrichment ratio is at most 0.25.
In the case of SFVQ, the enrichment ratio was at most 0.25.
YTHD: the enrichment ratio is at most 0.25.
Regarding PTAS, the enrichment ratio is at most 0.25.
Under MSDV stands at most 0.25; under KFGL, at most 0.25.
TKMQ: the enrichment ratio was at most 0.25.
As to HVST, the enrichment ratio was at most 0.25.
The figure for AFAP is at most 0.25; for KGMG it is at most 0.25.
The figure for EYTT is at most 0.25.
For KVAW, the enrichment ratio was at most 0.25.
With ILPN, the enrichment ratio was at most 0.25.
In the case of WPCW, the enrichment ratio was at most 0.25.
The figure for RDDW is at most 0.25; for AARP it is at most 0.25; for CLSW it is at most 0.25.
Regarding YLWP, the enrichment ratio was at most 0.25.
Under LCMM stands 26.9; under LMCN, at most 0.25; under KSQY, at most 0.25.
For MCSI, the enrichment ratio worked out at 12.5.
As for LNNP, the enrichment ratio was at most 0.25.
Under HGRN stands at most 0.25; under TAYD, at most 0.25.
For the variant RVDM, the enrichment ratio is at most 0.25.
Under VTWC stands at most 0.25; under PVTS, at most 0.25; under MAFI, 8.07.
For the variant LVIT, the enrichment ratio was at most 0.25.
Under AACL stands 11.3; under AHWY, at most 0.25; under IKKP, at most 0.25.
With EQKR, the enrichment ratio is at most 0.25.
With AQFW, the enrichment ratio is at most 0.25.
Under FQNN stands at most 0.25.
For the variant QQCF, the enrichment ratio was at most 0.25.
Under QNNI stands at most 0.25; under QCMF, at most 0.25; under ADRG, at most 0.25.
Regarding TSDH, the enrichment ratio was 6.53.
The figure for KMTR is at most 0.25; for YFWF it is at most 0.25.
Consider TSTW, for which the enrichment ratio is at most 0.25.
In the case of IQLL, the enrichment ratio was determined as 0.329.
As for DWWH, the enrichment ratio was at most 0.25.
The figure for FQMR is at most 0.25; for RIES it is at most 0.25.
On to QHTG, for which the enrichment ratio was at most 0.25.
The figure for RGEL is at most 0.25; for EDYP it is at most 0.25; for RSMK it is at most 0.25.
Under GIRP stands at most 0.25; under PRHG, at most 0.25; under VVGM, at most 0.25.
The figure for FIQI is at most 0.25; for NDDV it is at most 0.25; for FLQV it is at most 0.25.
With WWHF, the enrichment ratio was at most 0.25.
Under HNCW stands at most 0.25; under QVTK, at most 0.25; under LGRD, at most 0.25.
Turning to NPNP, the enrichment ratio was at most 0.25.
The figure for LVYC is at most 0.25; for AEVS it is 16.2; for ECLT it is at most 0.25.
The figure for QFTS is at most 0.25.
The figure for YMDY is at most 0.25.
In the case of MIKH, the enrichment ratio is at most 0.25.
